Test results: the supplement of paper PMC4967469
IC50 is the fitted dose that halves viability relative to control wells, and lower means more sensitive; a limit (>, <) means that the fit lies beyond the doses tested. AUC is the area under the same curve over the 256-fold range up to the top dose, as a fraction: 1 means no effect, lower means more sensitive. For some of these results: Any top dose called inferred was derived from the fitted curves, not read from the paper. For some of these results: An entry number marks a drug with two screens in the source, which often give different values.

Columns and labels:
Test in all cases: Viability of human cancer cell lines after 72 h of drug (GDSC screen)
JNJ-26854165 = compound: c1ccc2c(CCNc3ccc(Nc4ccncc4)cc3)c[nH]c2c1 [JNJ-26854165]; conditions: top dose 10 µM
Description: (§1)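 Human cancer cell lines in 384-well plates, medium with 10% serum, drug for 72 h over a 256-fold dose range (nine 2-fold or five 4-fold steps up to the top dose). Adherent lines were fixed and stained with the nucleic acid dye Syto60, suspension lines read with resazurin; signal relative to control wells, capped at 0 and 100%. One two-parameter sigmoid per drug and line, fitted in a mixed model over all curves with the slope shared within a line.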

SB-715992 = compound: Cc1ccc(C(=O)N(CCCN)[C@@H](c2nc3cc(Cl)ccc3c(=O)n2Cc2ccccc2)C(C)C)cc1 [SB-715992]; conditions: top dose 0.128 µM; top dose inferred
Description: as §1

FTI-277 = compound: COC(=O)[C@H](CCSC)NC(=O)c1ccc(NC[C@@H](N)CS)cc1-c1ccccc1 [FTI-277]; conditions: top dose 1.024 µM; top dose inferred
Description: as §1

JNK Inhibitor VIII = compound: CCOc1nc(NC(=O)Cc2cc(OC)ccc2OC)cc(N)c1C#N [JNK Inhibitor VIII]; conditions: top dose 10 µM; top dose inferred
Description: as §1

Belinostat = compound: O=C(/C=C/c1cccc(S(=O)(=O)Nc2ccccc2)c1)NO [Belinostat]; conditions: top dose 20 µM; top dose inferred
Description: as §1

YM155 = compound: COCC[n+]1c2c(n(Cc3cnccn3)c1C)C(=O)c1ccccc1C2=O [YM155]; conditions: top dose 5.12 µM
Description: as §1

AMG-706 = compound: CC1(C)CNc2cc(NC(=O)c3cccnc3NCc3ccncc3)ccc21 [AMG-706]; conditions: top dose 2 µM; top dose inferred
Description: as §1

OSI-906 = compound: C[C@]1(O)C[C@@H](c2nc(-c3ccc4ccc(-c5ccccc5)nc4c3)c3c(N)nccn32)C1 [OSI-906]; conditions: top dose 2.56 µM; top dose inferred
Description: as §1

Docetaxel = compound: CC(=O)O[C@@]12CO[C@@H]1C[C@H](O)[C@@]1(C)C(=O)[C@H](O)C3=C(C)[C@@H](OC(=O)[C@H](O)[C@@H](NC(=O)OC(C)(C)C)c4ccccc4)C[C@@](O)([C@@H](OC(=O)c4ccccc4)[C@H]21)C3(C)C [Docetaxel]; conditions: top dose 0.0125 µM
Description: as §1

JQ1 = compound: Cc1sc2c(c1C)C(c1ccc(Cl)cc1)=N[C@@H](CC(=O)OC(C)(C)C)c1nnc(C)n1-2 [JQ1]
Description: as §1

NSC-207895 = compound: CN1CCN(c2ccc([N+](=O)[O-])c3no[n+]([O-])c23)CC1 [NSC-207895]; conditions: top dose 20 µM; top dose inferred
Description: as §1

[1] = top dose 1 µM, screen: GDSC drug entry 1218, top dose inferred
[2] = top dose 2.56 µM, screen: GDSC drug entry 163

Row | Cell Line | AUC (JNJ-26854165) | IC50 (JNJ-26854165) | AUC (SB-715992) | IC50 (SB-715992) | AUC (FTI-277) | IC50 (FTI-277) | AUC (JNK Inhibitor VIII) | IC50 (JNK Inhibitor VIII) | AUC (Belinostat) | IC50 (Belinostat) | AUC (YM155) | IC50 (YM155) | AUC (AMG-706) | IC50 (AMG-706) | AUC (OSI-906) | IC50 (OSI-906) | AUC (Docetaxel) | IC50 (Docetaxel) | AUC (JQ1; [1]) | IC50 (JQ1; [1]) | AUC (JQ1; [2]) | IC50 (JQ1; [2]) | AUC (NSC-207895) | IC50 (NSC-207895)
1 | CAL-62 (thyroid, adherent) | 0.984 | > 10000 nM | 0.793 | 55.1 nM | 0.938 | > 1020 nM | 0.988 | > 10000 nM | 0.413 | 732 nM | 0.032 | < 20 nM | 0.98 | > 2000 nM | 0.967 | > 2560 nM | 0.458 | 0.603 nM | 0.942 | > 1000 nM | 0.564 | 238 nM | 0.855 | 14700 nM
2 | CAL-72 (osteosarcoma, adherent) | 0.903 | > 10000 nM | 0.984 | > 128 nM | 0.983 | > 1020 nM | 0.981 | > 10000 nM | 0.832 | 16100 nM | 0.283 | 69 nM | 0.975 | > 2000 nM | 0.968 | > 2560 nM | 0.255 | 0.134 nM | 0.975 | > 1000 nM | 0.534 | 201 nM | 0.984 | > 20000 nM
3 | CAL-78 (chondrosarcoma, adherent) | 0.911 | > 10000 nM | 0.975 | > 128 nM | 0.973 | > 1020 nM | 0.975 | > 10000 nM | 0.832 | 15500 nM | 0.335 | 104 nM | 0.941 | > 2000 nM | 0.859 | > 2560 nM | 0.86 | > 12.5 nM | 0.98 | > 1000 nM | 0.864 | > 2560 nM | 0.985 | > 20000 nM
4 | CAL-85-1 (breast, adherent) | 0.935 | > 10000 nM | 0.747 | 51.1 nM | 0.94 | > 1020 nM | 0.968 | > 10000 nM | 0.64 | 3400 nM | 0.253 | 50 nM | 0.974 | > 2000 nM | 0.723 | 836 nM | 0.759 | 5.56 nM | 0.974 | > 1000 nM | 0.383 | 69.4 nM | 0.791 | 11900 nM
5 | CAPAN-1 (pancreas, adherent) | 0.965 | > 10000 nM | 0.97 | > 128 nM | 0.981 | > 1020 nM | 0.946 | > 10000 nM | 0.695 | 4720 nM | 0.171 | 27.9 nM | 0.949 | > 2000 nM | 0.887 | > 2560 nM | 0.877 | > 12.5 nM |  |  | 0.859 | 2510 nM | 0.955 | > 20000 nM
6 | CCF-STTG1 (glioma, adherent) | 0.93 | > 10000 nM | 0.952 | > 128 nM | 0.987 | > 1020 nM | 0.975 | > 10000 nM | 0.988 | > 20000 nM | 0.782 | 2160 nM | 0.896 | > 2000 nM | 0.972 | > 2560 nM | 0.873 | 12.2 nM | 0.971 | > 1000 nM | 0.954 | > 2560 nM | 0.988 | > 20000 nM
7 | CCK-81 (large intestine, adherent) | 0.862 | 7730 nM | 0.598 | 14.6 nM | 0.99 | > 1020 nM | 0.99 | > 10000 nM | 0.337 | 453 nM | 0.902 | > 5120 nM | 0.99 | > 2000 nM | 0.848 | 1730 nM | 0.988 | > 12.5 nM | 0.944 | > 1000 nM | 0.635 | 368 nM | 0.909 | > 20000 nM
8 | CHP-212 (neuroblastoma, adherent) | 0.834 | 5810 nM | 0.927 | > 128 nM | 0.98 | > 1020 nM | 0.974 | > 10000 nM | 0.13 | 96.2 nM | 0.8 | 2250 nM | 0.983 | > 2000 nM | 0.928 | > 2560 nM | 0.84 | 7.66 nM | 0.987 | > 1000 nM | 0.446 | 115 nM | 0.975 | > 20000 nM
9 | CHSA0108 (chondrosarcoma, adherent) | 0.867 | > 10000 nM | 0.982 | > 128 nM | 0.955 | > 1020 nM | 0.978 | > 10000 nM | 0.201 | 137 nM | 0.038 | < 20 nM | 0.98 | > 2000 nM | 0.903 | > 2560 nM | 0.827 | 9.27 nM | 0.979 | > 1000 nM | 0.782 | 1250 nM | 0.857 | > 20000 nM
10 | CHSA8926 (chondrosarcoma, adherent) | 0.908 | > 10000 nM | 0.98 | > 128 nM | 0.912 | > 1020 nM | 0.975 | > 10000 nM | 0.831 | > 20000 nM | 0.336 | 92 nM | 0.848 | > 2000 nM | 0.979 | > 2560 nM | 0.707 | 3.9 nM | 0.975 | > 1000 nM | 0.927 | > 2560 nM | 0.976 | > 20000 nM
